Reference: PubChem BioAssay AID686979 (National Center for Advancing Translational Sciences (NCATS), 2013)
Among all 420,000 compounds or so, about 50,000 (12%) were called active. This list was built around the results that the source calls inconclusive (neither active nor inactive); the mix of calls is not that of the screen. Calls come from the whole dose curve; as a rule, active = well fitted inhibition curve with a large enough effect; inconclusive = small, poorly fitted or top-dose-only effect; inactive = flat fitted curve, though single readings scatter. Potencies of inconclusive entries are left out as doubtful fits.

Experiment: qHTS for Inhibitors of human tyrosyl-DNA phosphodiesterase 1 (TDP1): qHTS in cells in presence of CPT; note: nearly all actives have a fitted effect of over 55% in size
Settings: chicken DT40 Tdp1-/-;hTDP1 cells + 20 nM CPT, ATP luminescence, 48 h; activity change, negative = growth inhibition: at 46.2 µM (top of the series)
In short: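 Chicken DT40 Tdp1-/- cells stably complemented with human TDP1 were seeded at 400 cells/well in medium containing 20 nM camptothecin, exposed to pin-transferred compounds, and grown at 37 °C for at least 48 hr. Viability was read as ATP luminescence.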
% is set by controls: 0 for no effect and ±100 for the full control effect; potency is the fitted concentration of half-maximal effect; tags give direction and shape of the fitted curve.

Structure (SMILES) | Potency | activity change, negative = growth inhibition
O=C(NCc1ccco1)C1CCN(c2ccc(S(=O)(=O)N3CCOCC3)cc2[N+](=O)[O-])CC1 | inconclusive [inhibitor, partial curve] | 
CCOC(=O)c1c(NC(=O)C(C)Sc2cccc[n+]2[O-])sc2c1CCN(Cc1ccccc1)C2 (configuration not stated) | inconclusive [inhibitor, partial curve] | 
CC1CCN(C(=O)CSc2nc(C(C)C)nc3c2c(=O)n(C)c(=O)n3C)CC1 | active: 16.4 µM | 
c1coc(CNc2nc3ccccc3n2CCN2CCOCC2)c1 |  | inactive: -4.97%
O=c1[nH]nc(SCCS(=O)(=O)c2ccc(F)cc2)n1-c1ccccc1C(F)(F)F | active: 23.1 µM | 
COCOc1cccc(CN2CCC(C)(Oc3ccc(SC)cc3)C2)c1 (configuration not stated) | inconclusive [inhibitor, single point] | 
CCOc1ccc2[nH]c(=O)c(CN(Cc3ccco3)C(=O)c3ccc(Br)cc3)cc2c1 | inconclusive [inhibitor, full curve, poor fit] | 
Cc1ccc(C)c(Cn2c3ccccc3c3cnn(CC(=O)NC(C)CCc4ccccc4)c(=O)c32)c1 (configuration not stated) | active: 3.26 µM | 
Cc1c(Cl)ccc2sc(N3CCN(C(=O)C4=COCCO4)CC3)nc12 | inconclusive [inhibitor, single point] | 
Cc1ccn2cc(C34CC5CC(CC(C5)C3)C4)nc2c1 | inconclusive [inhibitor, partial curve] | 
COc1cccc(C(=O)NCCCNc2nc3cc(C)cc(C)c3cc2C#N)c1 | inconclusive [inhibitor, single point] | 
COc1ccc(CCNc2ncnc3c2nnn3Cc2ccccc2)cc1 | inconclusive [inhibitor, partial curve] | 
O=C(N/N=C/c1cccc(Cl)c1)c1c(O)c2c([nH]c1=O)CCCC2 | inconclusive [inhibitor, single point] | 
Cn1ncc2c(N)nc(NCCO)nc21 |  | inactive: 1.03%
Cc1ccc(-n2ncc(C(=O)N3CCN(c4cc(Cl)ccc4C)CC3)c2C2CCN(C(=O)OC(C)(C)C)CC2)cc1 | inconclusive [inhibitor, partial curve] | 
CCOc1ccccc1NC(=O)C(OC(=O)c1cnc(C)cn1)c1ccccc1 (configuration not stated) | inconclusive [inhibitor, single point] | 
O=C(O)COCC(=O)N1CCN(C2c3ccccc3-c3ccccc32)CC1 |  | inactive: -9.93%
COc1ccc(-c2cc(C(=O)Nc3cc(S(=O)(=O)N4CCOCC4)ccc3N3CCOCC3)c3ccccc3n2)cc1 | inconclusive [inhibitor, partial curve, poor fit] | 
COC(=O)[C@H](NC(=O)c1cc(-c2ccccc2)sc1N)C(C)C | inconclusive [inhibitor, single point] | 
O=C(CSc1nc(-c2ccccc2)nn1C(=O)c1ccccc1)Nc1cccc([N+](=O)[O-])c1 | inconclusive [inhibitor, partial curve] | 
N#CC1C(=O)NC(=O)C(C#N)C12CCCC2 (configuration not stated) |  | inactive: 5.81%
COc1ccc(CNc2ncnc3c2nc2n3CCCC2)cc1 | inconclusive [inhibitor, single point] | 
Cc1ccc2oc(-c3cccc(N)c3)nc2c1 |  | inactive: -0.67%
COC(=O)c1ccccc1NC(=O)CN(c1ccc(C)cc1)S(C)(=O)=O |  | inactive: -18%

Structure (SMILES) | Potency | activity change, negative = growth inhibition
COc1cccc(C2=CC(c3cc(OC)ccc3OC)n3nnnc3N2)c1 (configuration not stated) | active: 7.31 µM | 
COc1ccccc1N1CCN(C(=O)C(=O)c2cccc([N+](=O)[O-])c2)CC1 | inconclusive [inhibitor, single point] | 
CCC(=O)N/N=C(\C)CC(=O)Nc1ccccc1-c1ccccc1 |  | inactive: -11.5%
CN1CCN(C(=O)Cn2c(=O)oc3cc(S(=O)(=O)NCc4ccccc4)ccc32)CC1 | inconclusive [inhibitor, single point] | 
CCCCc1cc2c(s1)CCCC/C2=N/O |  | inactive: -6.51%
Cn1ncc2c(Nc3cc(C(F)(F)F)ccc3Cl)ncnc21 | inconclusive [inhibitor, single point] | 
Cc1ccccc1CN1CCN(Cc2ccccc2C(F)(F)F)CC1 | inconclusive [inhibitor, single point] | 
O=c1c2ccccc2c(C=Nc2ccc(S(=O)(=O)N3CCCCC3)cc2)c(O)n1-c1ccc(Cl)cn1 |  | inactive: -1.82%
O=C(COC(=O)c1cc([N+](=O)[O-])ccc1NCc1ccccc1)NC1CCCCC1 | inconclusive [inhibitor, single point] | 
O=C(COC(=O)C1CCCO1)Nc1nc(-c2ccc(F)cc2)cs1 (configuration not stated) | inconclusive [inhibitor, single point] | 
Cc1ccc(C)c(NC(=S)NNC(=O)c2csc3c2CCC(C)C3)c1 (configuration not stated) |  | inconclusive: -34.3% [inhibitor]
O=C(Nc1ccc(Cc2ccncc2)cc1)c1ccc([N+](=O)[O-])o1 | inconclusive [inhibitor, single point] | 
O=C(COC(=O)/C=C/c1ccc(Br)o1)NCCCN1CCCC1=O |  | inactive: 3.85%
O=C(Nc1nonc1-c1ccc(Cl)cc1)c1ccccc1 |  | inactive: -3.06%
CCOc1ccc(/C=C2\CCC(C3CCCC3)C2=O)cc1OC (configuration not stated) | inconclusive [inhibitor, single point] | 
CC(C)n1c(=O)[nH][nH]c1=S |  | inactive: 12.5%
COc1cccc(CNC(=O)CN2CCC(c3nc4ccc(C)cc4[nH]3)CC2)c1 | inconclusive [inhibitor, partial curve, poor fit] | 
CCN(c1cccc(C)c1)S(=O)(=O)c1cc(Br)cc2c1N(C(C)=O)C(C)C2 (configuration not stated) | active: 23.1 µM | 
COc1cc(OC)c(N2CC(C(=O)Nc3cccc(C(=O)NC4CC4)c3)CC2=O)cc1Cl (configuration not stated) |  | inactive: 13%
CCOc1cc(C(=S)N2CCOCC2)ccc1O | inconclusive [inhibitor, single point] | 
CCCN1CCC(C(=O)NC(c2ccc(Cl)cc2)c2ccsc2)CC1 (configuration not stated) | inconclusive [inhibitor, single point] | 
COc1ccc(CCN2C(=O)c3ccncc3C2=O)cc1OC | inconclusive [inhibitor, single point] | 
CCOC(=O)CCCNC(=O)CCNC(=O)c1ccc(OCC(C)C)cc1 |  | inactive: 6.53%
COC(=O)CCSCC(=O)N1N=C(c2ccc(Br)cc2)CC1c1cccc(OC)c1OC (configuration not stated) | inconclusive [inhibitor, single point] | 

Structure (SMILES) | Potency | activity change, negative = growth inhibition
O=C(NCc1cccs1)C1CC(c2ccc(Cl)cc2)=NO1 (configuration not stated) | active: 13 µM | 
OCCN1CCN(c2ncnc3sc(-c4ccccc4)cc23)CC1 | inconclusive [inhibitor, single point] | 
CCCN(c1c(C)n(C)n(-c2ccccc2)c1=O)S(=O)(=O)c1ccc(C)cc1 |  | inactive: -2.76%
O=C(Cn1ccnc1[N+](=O)[O-])NCCO |  | inactive: 3.48%
COc1ccc2c(c1)c1c(c(=O)n(-c3ccccc3C)c(=O)n1Cc1cccc(C(F)(F)F)c1)n2C | active: 3.66 µM | 
CC(C)OC(=O)c1ccc(Cn2nnc3sc4c(c3c2=O)CCCC4)cc1 | inconclusive [inhibitor, single point] | 
CC1CCN(C(=O)CSc2n[nH]c(-c3ccc(F)cc3)n2)CC1 | inconclusive [inhibitor, partial curve] | 
O=C(COc1ccc(Br)cc1)Nc1nc(-c2cccnc2)cs1 | inconclusive [inhibitor, partial curve] | 
Cc1cc(C)n(CC(=O)NC2CCCN(Cc3ccc(Cl)cc3)C2)n1 (configuration not stated) | inconclusive [inhibitor, single point] | 
CCCCc1c(-c2ccccc2OC)ncn1CCc1ccccc1OC | active: 11.6 µM | 
COc1ccccc1NC(=O)CN1C(=O)COc2ccc(S(=O)(=O)N3CCCCCC3)cc21 | inconclusive [inhibitor, single point] | 
O=C(CSc1nncs1)Nc1ccc(N2CCCCC2)cc1 | inconclusive [inhibitor, single point] | 
COc1ccc(OC)c(C2=NS(=O)(=O)N(C)C(C(=O)NCc3cccs3)=C2)c1 | inconclusive [inhibitor, single point] | 
CCN(CC)CCN1C(=O)c2cccc3cc(N)cc(c23)C1=O | active: 11.6 µM | 
CC(=O)Nc1cccc(/C(C)=N/NC(=O)c2ccccc2Cl)c1 | inconclusive [inhibitor, partial curve] | 
CN(Cc1ccccc1)C(CNS(=O)(=O)c1ccccc1)c1ccccc1 (configuration not stated) | inconclusive [inhibitor, single point] | 
CCOc1ccc(-c2c[n+]3c(n2-c2ccccc2)CCCCC3)cc1 | active: 0.082 µM | 
CCc1nc2ccc(C(=O)N3CCN(c4cc(Cl)ccc4C)CC3)cc2nc1CC | inconclusive [inhibitor, single point] | 
COc1ccc(C2C(C(C)=O)=C(O)C(=O)N2c2ccc(F)cc2)cc1 (configuration not stated) |  | inactive: 6.94%
Nc1nonc1OCCN1CCN(c2ccc([N+](=O)[O-])c3cccnc23)CC1 | active: 23.1 µM | 
Cc1noc(C)c1CSCC(=O)Nc1nc2ccc(Oc3ccccc3)cc2s1 |  | inactive: -8.95%
CC(C)(C)C(=O)Nc1ccc(-c2nc3ccc(NC(=O)C(C)(C)C)cc3[nH]2)cc1 | active: 0.651 µM | 
O=C(c1ccc(N2C(=O)CCC2=O)cc1)N1CCCSC1=Nc1ccccc1 |  | inactive: -7.67%
O=C(CN1CCC(NC(=O)c2ccccc2F)CC1)Nc1ccc2c(c1)OCCO2 |  | inactive: -0.193%
